The term Ki denotes the dissociation constant of the complex between target and ligand, obtained from inhibition or displacement.

Our source for the Ki values is patent publication US8067379B2, “Sulfur compounds as inhibitors of hepatitis C virus NS3 serine protease” (Schering Corporation, priority 2004, dated 2011).

Structures are written as SMILES. Bounds are passed on as bounds.

One assay concerns the target Recombinant heterodimeric HCV NS3/NS4A protease (strain 1a) (Hepatitis C virus genotype 1a, UniProt P27958). The assay can be described thus: Spectrophotometric assay for HCV serine protease inhibitory activity (chromogenic ester substrates). The note with it: Table 3, sulfide compounds; HCV serine protease; read-out: Ki* range. Type of assay: biochemical.
In the case of `C#CCCC(NC(=O)[C@@H]1[C@@H]2[C@H](CN1C(=O)[C@@H](NC(=O)NC1(CSC(C)(C)C)CCCCC1)C(C)(C)C)C2(C)C)C(=O)C(=O)NCC=C` (stereo partly drawn) [Compound 122], the Ki is less than 75 nM.

Still in this assay, the particulars now being: Table 3, sulfone compounds, rows without Prep. Ex. number; read-out: Ki* (numeric value, unlabelled structures at end of sulfone table, column without head).
On to `C#CCCC(NC(=O)[C@@H]1[C@@H]2[C@H](CN1C(=O)[C@@H](NC(=O)NC1(CS(=O)(=O)C(C)(C)C)CCCCC1)C1(C)CCCCC1)C2(C)C)C(=O)C(=O)NCC1CC1` (stereo partly drawn), for which the Ki is 4 nM.

The same assay, now with this note: Table 3, sulfone compounds; HCV serine protease; read-out: Ki* range.
As to `C=CCNC(=O)C(=O)C(CC1CC1)NC(=O)[C@@H]1[C@@H]2[C@H](CN1C(=O)[C@@H](NC(=O)NC1(CS(=O)(=O)c3ccccc3)CCCCC1)C(C)(C)C)C2(C)C` (stereo partly drawn) [Compound 200], the Ki is less than 75 nM.

Take `CCCNC(=O)C(=O)C(CCC)NC(=O)[C@@H]1CCCN1C(=O)[C@@H](NC(=O)NC1(CS(=O)(=O)C(C)(C)C)CCCCC1)C1CCCCC1` (stereo partly drawn) [Compound 256]: the Ki was less than 75 nM.

As for `CC(C)(C)[C@H](NC(=O)NC1(CS(=O)(=O)C(C)(C)C)CCCCC1)C(=O)N1C[C@H]2[C@@H]([C@H]1C(=O)NC(C(=O)C(N)=O)C1CCC1)C21CCCC1` (stereo partly drawn) [Compound 308], the Ki was less than 75 nM.

`C=CCNC(=O)C(=O)C(CC1CC1)NC(=O)[C@@H]1[C@@H]2[C@H](CN1C(=O)[C@@H](NC(=O)NC1(CS(=O)(=O)C(C)(C)C)CCCCC1)C1CCCCC1)C2(C)C` (stereo partly drawn) [Compound 284]: the Ki is less than 75 nM.

Turning to `C=CCNC(=O)C(=O)C(CCC)NC(=O)[C@@H]1CCCN1C(=O)[C@@H](NC(=O)NC1(CS(C)(=O)=O)CCCCC1)C(C)(C)C` (stereo partly drawn) [Compound 241], the inhibition constant (Ki) is greater than 250 nM.

For the compound `C#CCCC(NC(=O)[C@@H]1[C@@H]2[C@H](CN1C(=O)[C@@H](NC(=O)NC1(CS(=O)(=O)C(C)(C)C)CCCCC1)C(C)(C)C)C2(C)C)C(=O)C(=O)NCC#C` (stereo partly drawn) [Compound 258], the Ki was less than 75 nM.

`C#CCCC(NC(=O)[C@@H]1[C@@H]2[C@H](CN1C(=O)[C@@H](NC(=O)NC1(CS(=O)(=O)C(C)(C)C)CCCCC1)C1Cc3ccccc3C1)C2(C)C)C(=O)C(=O)NCC=C` (stereo partly drawn) [Compound 277]: the inhibitory constant (Ki) was less than 75 nM.

Turning to `C=CCNC(=O)C(=O)C(CCC)NC(=O)[C@@H]1[C@@H]2[C@H](CN1C(=O)[C@@H](NC(=O)NC1(CS(C)(=O)=O)CCCCC1)C1CCCCC1)C2(C)C` (stereo partly drawn) [Compound 242], the Ki is less than 75 nM.

On to `C=CCNC(=O)C(=O)C(CC1CC1)NC(=O)[C@@H]1[C@@H]2[C@H](CN1C(=O)[C@@H](NC(=O)NC1(CS(=O)(=O)C(C)(C)C)CCCCC1)C1Cc3ccccc3C1)C2(C)C` (stereo partly drawn) [Compound 286], for which the Ki was less than 75 nM.

The assay is the same for the next values; noted with them: Table 3A; cells that print a number instead of a class symbol; read-out: Ki* Range.
Consider `C=CCNC(=O)C(=O)[C@H](CCCC)NC(=O)[C@@H]1[C@@H]2[C@H](CN1C(=O)[C@@H](NC(=O)NC1(C3COCCS3(=O)=O)CCCCC1)C(C)(C)C)C2(C)C` (stereo partly drawn) [Compound 883-w], for which the Ki was determined as 3 nM.

Still in this assay, the particulars now being: Table 3A; class symbols; read-out: Ki* Range.
Consider `CC1([C@H](NC(=O)NC2(CS(=O)(=O)C(C)(C)C)CCCCC2)C(=O)N2C[C@H]3[C@@H]([C@H]2C(=O)NC(CC2CC2)C(=O)C(=O)NCCC2CC2)C3(C)C)CCCCC1` (stereo partly drawn) [Compound 440], for which the Ki is less than 75 nM.

For the compound `C=CCNC(=O)C(=O)C(CCC(C)C)NC(=O)[C@@H]1[C@@H]2[C@H](CN1C(=O)[C@@H](NC(=O)NC1(CS(=O)(=O)C(C)(C)C)CCCCC1)C1CCCCC1)C2(C)C` (stereo partly drawn) [Compound 582], the Ki is less than 75 nM.

Regarding `CCCC[C@H](NC(=O)[C@@H]1[C@@H]2[C@H](CN1C(=O)[C@@H](NC(=O)NC1([C@H]3CCS3(=O)=O)CCCCC1)C(C)(C)C)C2(C)C)C(=O)C(=O)NC1CC1` [Compound 883-n], the Ki was less than 75 nM.

Consider `C=CCNC(=O)C(=O)[C@H](CCCC)NC(=O)[C@@H]1[C@@H]2[C@H](CN1C(=O)[C@@H](NC(=O)NC1(CS(=O)(=O)C(C)(C)COC)CCCCC1)C1(C)CCCCC1)C2(C)C` [Compound 850], for which the Ki was less than 75 nM.

`C=CCNC(=O)C(=O)[C@H](CC1CC1)NC(=O)[C@@H]1[C@@H]2[C@H](CN1C(=O)[C@@H](NC(=O)NC1(CS(=O)(=O)C(C)(C)CF)CCCCC1)C(C)(C)C)C2(C)C` [Compound 751]: the Ki is less than 75 nM.

Consider `CC(C)(C)[C@H](NC(=O)NC1(CS(=O)(=O)C(C)(C)CO)CCCCC1)C(=O)N1C[C@H]2[C@@H]([C@H]1C(=O)N[C@@H](CCC1CC1)C(=O)C(=O)NC1CC1)C2(C)C` [Compound 743], for which the Ki is less than 75 nM.

With `CC1([C@H](NC(=O)NC2(C3CCCS3(=O)=O)CCCCC2)C(=O)N2C[C@H]3[C@@H]([C@H]2C(=O)NC(CC2CC2)C(=O)C(=O)NC2CC2)C3(C)C)CCCCC1` (stereo partly drawn) [Compound 607], the Ki was less than 75 nM.

`C=CCNC(=O)C(=O)C(CCC)NC(=O)[C@@H]1CC2(CN1C(=O)[C@@H](NC(=O)NC1(CS(=O)(=O)C(C)(C)C)CCCCC1)C(C)(C)C)SCCS2` (stereo partly drawn) [Compound 606]: the Ki is less than 75 nM.

With `CCCC[C@H](NC(=O)[C@@H]1[C@@H]2[C@H](CN1C(=O)[C@@H](NC(=O)NC1([C@@H]3CCCS3(=O)=O)CCCCC1)C(C)(C)C)C2(Cl)Cl)C(=O)C(=O)NCC` [Compound 883-cx], the Ki is less than 75 nM.

For `CC1([C@H](NC(=O)NC2(CS(=O)(=O)C(C)(C)C)CCCCC2)C(=O)N2C[C@H]3[C@@H]([C@H]2C(=O)NC(CCCCF)C(=O)C(=O)NC2CC2)C3(C)C)CCCCC1` (stereo partly drawn) [Compound 457], the Ki was less than 75 nM.

With `C=CCNC(=O)C(=O)[C@H](CCC1CC1)NC(=O)[C@@H]1[C@@H]2[C@H](CN1C(=O)[C@@H](NC(=O)NC1([C@@H]3CCCS3(=O)=O)CCCCC1)C1CCCCC1)C2(C)C` [Compound 883-av], the Ki is less than 75 nM.

Consider `CCC[C@H](NC(=O)[C@@H]1[C@@H]2[C@H](CN1C(=O)[C@@H](NC(=O)NC1([C@H]3CCS3(=O)=O)CCCCC1)C(C)(C)C)C2(C)C)C(=O)C(=O)NC1CC1` [Compound 883-p], for which the Ki was less than 75 nM.

For the compound `C=CCNC(=O)C(=O)C(CC1CC1)NC(=O)[C@@H]1[C@@H]2[C@H](CN1C(=O)[C@@H](NC(=O)NC1(CS(=O)(=O)C(C)(C)C)CCCCC1)C(C)(C)S(C)(=O)=O)C2(C)C` (stereo partly drawn) [Compound 614], the Ki was in the range of 75 to 250 nM.

With `CCCC(NC(=O)[C@@H]1[C@@H]2[C@H](CN1C(=O)[C@@H](NC(=O)NC1(CS(=O)(=O)C(C)(C)C)CCCCC1)C1(C)CCCCC1)C2(C)C)C(=O)C(=O)NCCCOC(C)C` (stereo partly drawn) [Compound 488], the Ki was 75 to 250 nM.

Take `C[C@@H](C1(NC(=O)N[C@H](C(=O)N2C[C@H]3[C@@H]([C@H]2C(=O)N[C@@H](CCC2CC2)C(=O)C(=O)NC2CC2)C3(C)C)C(C)(C)C)CCCCC1)S(=O)(=O)C(C)(C)C` [Compound 883-el]: the Ki was less than 75 nM.

In the case of `C=CCNC(=O)C(=O)[C@H](CCCC)NC(=O)[C@@H]1[C@@H]2[C@H](CN1C(=O)[C@@H](NC(=O)NC1(C3OCCS3(=O)=O)CCCCC1)C(C)(C)C)C2(C)C` (stereo partly drawn) [Compound 883-d], the inhibition constant (Ki) was less than 75 nM.

For the compound `CCCNC(=O)C(=O)[C@H](CC1CC1)NC(=O)[C@@H]1[C@@H]2[C@H](CN1C(=O)[C@@H](NC(=O)NC1([C@@H]3CCCS3(=O)=O)CCCCC1)C(C)(C)C)C2(Cl)Cl` [Compound 883-ed], the Ki is less than 75 nM.

Consider `C=CCNC(=O)C(=O)C(CC1CC1)NC(=O)[C@@H]1[C@@H]2[C@H](CN1C(=O)[C@@H](NC(=O)N[C@@]1(CS(=O)(=O)C(C)(C)C)[C@H](C)CCC[C@@H]1C)C1(C)CCCCC1)C2(C)C` (stereo partly drawn) [Compound 473], for which the inhibitory constant (Ki) is less than 75 nM.

Consider `CC(C)(C)[C@H](NC(=O)NC1(CS(=O)(=O)C(C)(C)C)CCCCC1)C(=O)N1C[C@H]2[C@@H]([C@H]1C(=O)N[C@@H](CCCF)C(=O)C(=O)NC1CC1)C2(C)C` [Compound 883-bw], for which the inhibition constant (Ki) is less than 75 nM.

Take `CCCC(NC(=O)[C@@H]1[C@@H]2[C@H](CN1C(=O)[C@@H](NC(=O)NC1(CS(=O)(=O)C(C)(C)C)CCCCC1)C1(C)CCCCC1)[C@@]2(C)COC(=O)C(C)(C)C)C(=O)C(=O)NC1CC1` (stereo partly drawn) [Compound 645]: the Ki lay within 75 to 250 nM.

For `CCCC[C@H](NC(=O)[C@@H]1[C@@H]2[C@H](CN1C(=O)[C@@H](NC(=O)NC1(CS(=O)(=O)C(C)(C)CN3CCCC3)CCCCC1)C(C)(C)C)C2(C)C)C(=O)C(=O)NC1CC1` [Compound 883-as], the Ki was less than 75 nM.

As to `CCCC(NC(=O)[C@@H]1[C@@H]2[C@H](CN1C(=O)[C@@H](NC(=O)NC1(CS(=O)(=O)C(C)(C)C)CCCCC1)C1(C)CCCCC1)C2(C)C)C(=O)C(=O)NC(C)C` (stereo partly drawn) [Compound 509], the Ki is less than 75 nM.

`CCCC(NC(=O)[C@@H]1[C@@H]2[C@H](CN1C(=O)[C@@H](NC(=O)NC1(CS(=O)(=O)C(C)(C)C)CCCCC1)C1(C)CCCCC1)[C@@]2(C)CO)C(=O)C(=O)NC1CC1` (stereo partly drawn) [Compound 637]: the Ki is 75 to 250 nM.

For the compound `CC(C)(C)[C@H](NC(=O)NC1(CS(=O)(=O)C(C)(C)C)CCCCC1)C(=O)N1C[C@H]2[C@@H]([C@H]1C(=O)NC(CC1CC1)C(=O)C(=O)NC1CC1)C2(Cl)Cl` (stereo partly drawn) [Compound 594], the inhibition constant Ki is less than 75 nM.

As to `C=CCNC(=O)C(=O)C(CC1CC1)NC(=O)[C@@H]1C[C@@H](C(F)(F)F)CN1C(=O)[C@@H](NC(=O)NC1(CS(=O)(=O)C(C)(C)C)CCCCC1)C1CCCCC1` (stereo partly drawn) [Compound 452], the Ki is less than 75 nM.

In the case of `CC1([C@H](NC(=O)NC2(CS(=O)(=O)C(C)(C)C)CCCCC2)C(=O)N2C[C@H]3[C@@H]([C@H]2C(=O)N[C@@H](CC2CC2)C(=O)C(=O)NCc2cccs2)C3(C)C)CCCCC1` [Compound 883-ce], the Ki is less than 75 nM.

`CC1([C@H](NC(=O)NC2(CS(=O)(=O)C3CCCCC3)CCCCC2)C(=O)N2C[C@H]3[C@@H]([C@H]2C(=O)NC(CC2CC2)C(=O)C(=O)NC2CC2)C3(C)C)CCCCC1` (stereo partly drawn) [Compound 550]: the Ki is less than 75 nM.

As for `C=CCNC(=O)C(=O)C(CC1CCC1)NC(=O)[C@@H]1[C@@H]2[C@H](CN1C(=O)[C@@H](NC(=O)NC1(CS(=O)(=O)C(C)(C)C)CCCCC1)C(C)(C)C)C2(Cl)Cl` (stereo partly drawn) [Compound 590], the Ki was less than 75 nM.

Take `C=CCNC(=O)C(=O)[C@H](CCCC)NC(=O)[C@@H]1[C@@H]2[C@H](CN1C(=O)[C@@H](NC(=O)NC1(CS(=O)(=O)C(C)(C)C)CCCCC1)C(C)(C)C)C2(C)C` [Compound 699]: the Ki was less than 75 nM.

For `C=CCNC(=O)C(=O)[C@H](CC1CC1)NC(=O)[C@@H]1[C@@H]2[C@H](CN1C(=O)[C@@H](NC(=O)NC1([C@H]3CCS3(=O)=O)CCCCC1)C(C)(C)C)C2(C)C` [Compound 883-o], the inhibition constant (Ki) was less than 75 nM.
